About 500 (0.14%) of roughly 370,000 compounds were called active. Inconclusive means that the source gave no clear call. Such entries were picked first, then a sample of the others. The call rests on the fitted dose curve; in most records, active means well fitted activation curve with a large enough effect; inconclusive means small, poorly fitted or top-dose-only effect; inactive means no such curve, though single readings can be large or run the other way. A potency beside an inconclusive call is a rough fit, not a confirmed value.
experiment: qHTS of alpha-syn Inhibitors; settings: Yeast expressing alpha-synuclein, BacTiter-Glo, 24 h; Potency: growth rescue unless noted; growth rescue (activation): at 46.1 µM (top of the series) unless noted; further: nearly all actives have a fitted effect of over 65% in size; on growth rescue (activation): % of control where 0% means no effect
In short: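 Rescue of yeast growth: cells expressing toxic alpha-synuclein, induced in galactose at OD600 0.02, incubated with compound 24 h at 30 C. ATP luminescence quantified growth; inhibitors of toxicity appear as activators.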
Potency means the concentration at half of the fitted maximal effect; tags describe the fitted curve by direction and shape.

Growth rescue (activation), inconclusive:
Cc1c(OC(C(=O)O)c2ccccc2)ccc2c1oc(=O)c1ccccc12 (configuration not stated) -46.4% [activator]
Cc1ccc(CSc2nc3ccncc3[nH]2)cc1 -33.7% [activator]

Potency, active:
Cc1cc(F)ccc1S(=O)(=O)Nc1ccccc1C(=O)N1CCCC1 4.47 µM

Potency, inactive:
CC(C)(C)c1ccc(C(=O)N2CCC2(C)C(=O)Nc2cccc3ccccc23)cc1 (configuration not stated)
Nc1cc2[nH]c(=O)c3ccccc3c2cc1Br
CC(C)N(C(=O)COC(=O)c1cc(Cl)cc(Cl)c1N)C(C)C
CCOc1ccc(C(C(=O)NCC2CCCO2)N(Cc2cccnc2)C(=O)c2snc(C(N)=O)c2N)cc1 (configuration not stated)
CC(SCc1ccccc1)C(=O)Nc1ccccc1-c1ccccc1 (configuration not stated)
O=C(COC(=O)/C=C/c1ccc(Cl)cc1)NC1CC1
Oc1c(N=NC(=S)Nc2ccccc2F)c2ccccc2n1Cc1ccccc1Cl
Cc1onc(-c2ccccc2Cl)c1C(=O)Nc1ccc(-n2nncc2C(C)(C)C)cc1
CC1=C(C(=O)N2CCCCCC2)CC(CC(=O)NC2CCCC2)C(=O)N1Cc1ccccc1 (configuration not stated)
COc1ccc(CNC(=O)C(C)OC(=O)c2cccn2C)cc1 (configuration not stated)
O=C(Cn1ncc2c1-c1ccccc1OC2)Nc1nc2ccccc2s1
Cc1cc(C)c(/C=N/NC(=O)c2nnn(-c3nonc3N)c2COc2ccc(F)cc2)c(C)c1
Cc1ccc(C)c(S(=O)(=O)N2CCCC2CNC(=O)c2ccc([N+](=O)[O-])cc2)c1 (configuration not stated)
COc1cccc(Nc2nc(C(N)CCc3ccccc3)cs2)n1 (configuration not stated)
Cc1ccc(OCC(=O)Nc2c(Cl)ccc3nsnc23)cc1C
CC1(C)OC(=O)C2(Cc3ccccc3N3CCCC32)C(=O)O1 (configuration not stated)
O=C(Nc1cccn(Cc2c(Cl)cccc2Cl)c1=O)c1ccccc1Cl
Cc1c(Cl)cccc1Nc1nc(N)nc(CSc2ncccn2)n1
Cc1ccc(S(=O)(=O)N2CCN(C(=O)CN3C(=O)c4ccc([N+](=O)[O-])cc4C3=O)CC2)c(C)c1
CN1C(=S)SC(/[N+]([O-])=C\c2cccs2)C1(C)C (configuration not stated)
O=C(Cc1ccccc1)O/N=C1\CCCc2ccccc21
Cc1ccccc1NC(=S)NC(=O)C1CCCCC1
Cc1cccc(NC(=O)Nc2nnc([C@@H]3C[C@H](O)[C@@H](CO)O3)s2)c1
COc1cccc(/C=N/Nc2nccnc2Cl)c1O
O=C(c1ccco1)n1nc(NCc2ccccc2)nc1NCc1ccccc1
COc1ccccc1-c1c(C)[nH]n2c(=O)c(Cc3ccccc3)c(C)nc12

Potency, inconclusive:
O=C(CC(c1cccs1)N1Cc2ccccc2C1=O)Nc1ccccc1 (configuration not stated) 20 µM [activator, single point]
CC1(c2ccccc2)NC(=O)N(CC(=O)NC(=O)NCc2ccco2)C1=O (configuration not stated) 5.01 µM [activator, single point]
CSCC(=O)N1CCC(Oc2cccc(C(=O)NCc3ccccn3)c2)CC1 31.6 µM [activator, single point]
O=C(COc1ccccc1)NNC(=S)NC(=O)c1ccc(Cl)cc1Cl 6.31 µM [activator, single point]
CC(=O)Nc1ccc(S(=O)(=O)NCc2ccc3c(c2)cc(C)n3C)cc1 5.01 µM [activator, single point]
CC(=O)Nc1ccc(SCC(=O)NC(=O)c2ccc(Cl)cc2)cc1 35.5 µM [activator, single point]
CC(C)CC1C(=O)N(Cc2cn(CCC3OCCCO3)nn2)CCS(=O)(=O)N1Cc1ccc(-c2ccc(Cl)c(Cl)c2)cc1 (configuration not stated) 35.5 µM [activator, single point]
O=C(Nc1ccc2c(c1)OCCO2)C(c1ccccc1)n1c(=O)c(-c2cc3ccccc3[nH]2)nc2ccccc21 (configuration not stated) 10 µM [activator, partial curve]
O=C(CS(=O)(=O)c1cn(Cc2ccc(Cl)cc2)c2ccccc12)N1CCCCC1 35.5 µM [activator, single point]
CCN(C(=O)c1cc2cc(OC)ccc2oc1=O)c1ccccc1 14.1 µM [activator, single point]
Cc1ccc(S(=O)(=O)CCc2nc3ccccc3n2CCC#N)cc1 3.16 µM [activator, single point]
CCCCN(C)C(=O)C(Cc1ccccc1)NS(=O)(=O)c1ccc2c(c1)CCC(=O)N2 (configuration not stated) 31.6 µM [activator, single point]
O=C1CC(c2ccccc2)C(=O)N1c1cccc(O)c1 (configuration not stated) 3.16 µM [activator, single point]
Nc1cc(-c2cccc(F)c2)nn1S(=O)(=O)c1cccc2nsnc12 35.5 µM [activator, single point]
Cc1ccc2c(c1)c1c(n2CC(O)Cn2nc(C)c(Br)c2C)CCCC1 (configuration not stated) 17.8 µM [activator, single point]
O=C(NCc1ccc(F)cc1)C1CCN(S(=O)(=O)c2ccc3c(c2)OCCCO3)CC1 35.5 µM [activator, single point]
COc1ccc(/C=C/C(=O)N2CCN(S(=O)(=O)c3ccccc3Br)CC2)cc1OC 17.8 µM [activator, single point]
CCCOc1ccc(C(=O)NNC(=S)NC(=O)CC)cc1 5.62 µM [activator, single point]
C[C@@H]1CN([C@@H](C)CO)S(=O)(=O)c2ccc(Br)cc2O[C@H]1CN(C)C(=O)Nc1ccc2c(c1)OCO2 31.6 µM [activator, single point]
CCOC(=O)c1cnc(-n2nc(C)cc2C)nc1NC(C)c1ccccc1 (configuration not stated) 28.2 µM [activator, single point]
CN(C)CCNC(=O)c1cccc(-c2cnc3c(NC=O)cc(/C=C/c4ccccc4)cn23)c1 5.62 µM [activator, single point]
COc1ccc(C(C)(O)c2nc(-c3ccc(Cl)cc3)cs2)cc1 (configuration not stated) 6.31 µM [activator, single point]
COC(=O)[C@@H](N)CS 5.62 µM [activator, single point]
CN1CCN(C(=S)Nc2cc(S(=O)(=O)N3CCOCC3)ccc2Cl)CC1 35.5 µM [activator, single point]
COc1cc2nc(N3CCCN(C)CC3)nc(NC3CCNCC3)c2cc1OC 35.5 µM [activator, single point]
Cc1ccc(C)c(NS(=O)(=O)c2c(C)nc3sccn3c2=O)c1 28.2 µM [activator, single point]
N#C/C(=C\c1ccc(Cl)cc1)C(=O)NC1CC1 12.6 µM [activator, partial curve]
Cc1nn(-c2ccccc2)c(C)c1C(=O)OCC(=O)NCc1ccco1 35.5 µM [activator, single point]
Cc1ccc(N2CC(C(=O)N3CCc4ccccc4C3)CC2=O)cc1 (configuration not stated) 31.6 µM [activator, single point]
CCOC(=O)CSC(CC)C(=O)Nc1nnc(CC)s1 (configuration not stated) 35.5 µM [activator, single point]
O=[N+]([O-])c1cccc(/C=N/n2cnnc2)c1O 14.1 µM [activator, single point]
O=C1COc2ccc(C(=O)CSc3nnc(-c4cccs4)n3Cc3ccccc3)cc2N1 6.31 µM [activator, single point]
COCCCN1C(=O)C(CC(=O)NC2CCCC2)CC(C(=O)N2CCOCC2)=C1C (configuration not stated) 14.1 µM [activator, single point]
COC(=O)c1ccc(Cn2nc([N+](=O)[O-])c(Br)c2C)cc1 31.6 µM [activator, single point]
Cc1nn(CC(O)CN2c3ccccc3Sc3ccccc32)c(C)c1Br (configuration not stated) 25.1 µM [activator, single point]
COc1ccc(C(=O)CSC#N)cc1OC 31.6 µM [activator, single point]
COc1ccc(S(=O)(=O)N2CCN(S(=O)(=O)c3ccc4c(c3)OCCO4)CC2)cc1C 22.4 µM [activator, single point]
Cc1ccc(CN2C(=O)CCC2(C)c2nnnn2-c2c(C)cccc2C)cc1 (configuration not stated) 5.62 µM [activator, single point]
CC(C)c1nnc(NC(=O)CS(=O)(=O)c2ccccc2)s1 35.5 µM [activator, single point]
CC(C)N(Cc1nccn1C)C(=O)C1CCC(=O)N(CCc2ccccc2)C1 (configuration not stated) 31.6 µM [activator, single point]
CCc1cc(=O)oc2cc(C)cc(OCC(=O)C(C)(C)C)c12 3.55 µM [activator, single point]
N=C(N)SCCc1ccc(CCSC(=N)N)cc1 20.6 µM [activator, single point]
CN(C)S(=O)(=O)N(CC(=O)NCCSCc1ccc(Cl)cc1Cl)c1ccccc1 4.47 µM [activator, full curve]

Reference: PubChem BioAssay AID652106 (National Center for Advancing Translational Sciences (NCATS), 2013)
